# Laboratory results as given in the supplement of paper PMC11417369.
# The list shows a part of the results.
# Test system: PfSIP2 AP2 domain 1 (GST-tagged)
# Experiment: gcPBM binding intensity (ln(normalized median fluorescence intensity)); higher = stronger DNA binding
# Summary of the method: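 GST-tagged P. falciparum DNA-binding domains, expressed in E. coli (about 25 μg on average), were applied for 1 h to an Agilent 4 × 180k array of primer-extended double-stranded 36-bp intergenic genomic probes plus negative controls. The binding buffer was 1× PBS with 1% milk, 0.2 mg/ml BSA, 0.5% salmon testes DNA and 0.03% Triton X-100. Bound protein was detected with Alexa488 anti-GST antibody and scanned at 488 nm. Binding intensity is the highest Masliner-normalised natural-log median intensity across replicate spots of either probe orientation.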
row,Sequence,gcPBM binding intensity (ln)
1,TATATATGTATGTATGTACACACAAAAAATGGAATA [CACACA_site9235],7.1
2,TTATTATTAGAAAAAAGTACACATATAAAATGTTAC [XGTACX_site6426],6.89
3,GGATACATATGTAAAAGTACACATGAATATATACAT [XGTACX_site6469],7.24
4,GTAAAATTAAAAATAACACACAAAAAAAAAAAAAAA [CACACA_site800],6.93
5,AAAAAAAAAAGAAAAAGTACATACATACATATATAT [XGTACX_site6405],7
6,TTTTAATTAGTACAAACACACATATACAGACAAAAA [CACACA_site2563],7.35
7,AGACGATAAATCATTCATTCATTTACCATCCAAAAA [CACACA_negctrl_site802],6.74
8,TAATATAGAAAATGCATACACACTTTATATATATAT [CACACA_site911],8.82
9,TACTATTATTATTGCACACTTATTATCCCTCGGATA [CACACA_site162],7.13
10,AATATATATTAATACACACACACATATATATATATA [CACACA_site3786],9.32
11,TGATCATAGAAACACACACACAAAAAAAAAAAAAAA [CACACA_site4008],7.06
12,AAAATTTTTTTTGGCGCACACTAATAATAAAATATA [CACACA_site470],7.23
13,CTTTTTAATGAATACACACACACACCGATATATATA [CACACA_site5296],7.5
14,AAATATTATTGACGATGTACTTCTATTCATAAGTAT [XGTACX_site3964],6.74
15,GAATAATATGGACATACACACATATACATACCTATA [CACACA_site7075],7.25
16,TAAAACTTATACAAATGTACAAATATATATATATAT [XGTACX_site4661],8.89
17,TATATAAATATACACCCACACACATATATATATATA [CACACA_site9247],9.73
18,TATATATATAACATATGTACATATATTTATAAATAC [XGTACX_site5484],8.08
19,AATAATTTAATACATACACACGTATATCTTTTTTTT [CACACA_site8632],7.07
20,ATCGTAGTATAATATGAACACACACCCACCCACAAA [CACACA_site8616],7.34
21,TATATTCCACTCATTGATTTTCTCTTCTCACAAAAA [CACACA_negctrl_site1016],7.01
22,TATAAAAAAAAATGTGGTACATATTTCCATTTTCCA [XGTACX_site4571],7.07

row,Sequence,gcPBM binding intensity (ln)
1,TTATTTTTATTATAAATTATAAAATATAAATAAATA [GTGCAC_negctrl_site616],6.79
2,TAAATCCGCACGCACACACACATATTAATAAAAAAA [CACACA_site7800],7.67
3,CATGAATTTTTTTAATGTACATTCACATCATAAAAA [XGTACX_site7475],7
4,ATATATTATATATATAGTACGTATATAAATTTAATT [XGTACX_site5041],7.14
5,TCTTCTTAACCAACTATGAAAAGGAAAAATATAACA [GTGCAC_negctrl_site565],7
6,GAAACTATGTAATGCACACCAAAATAAAATTATTAA [CACACA_site1904],7.99
7,ATTATAAAAAAGAAACGTACATATTTATTGTTTTTT [XGTACX_site2161],6.99
8,TATAATAATACTTATTGTACTATTAGTTTAATTCAT [XGTACX_site6638],6.73
9,ATCTTTCAATAATTCACACATATATATATATATATA [CACACA_site4598],9.91
10,CTATTACAAAGAAATTGTACATATATATATAAAAAC [XGTACX_site8800],7.16
11,ATATATATATATGTACACATATATGTGTTTGTTTTT [GTGCAC_negctrl_site5],9.12
12,AATGAAGACTTTTTTACACACTTCATATCTTATAGA [CACACA_site7046],6.57
13,AGCCACAATACGGAAACACACAAGTTATTTTATCAT [CACACA_site2724],7.01
14,TTTTTATGAATTCTTTTGTTAATAATAATATGTTGT [TGCATGCA_negctrl_site198],7.01
15,TTTTAACGTAATTCAAATGAGCAGAATTTTTTAAAA [CACACA_negctrl_site1800],6.66
16,AATATTTTTAATTAATGTACATATTTATTATATAAA [XGTACX_site5112],7.1
17,AAATTTTTTCCGATTTGTACTTATATTTCTTTATTA [XGTACX_site1762],6.67
18,TAAATAAATTTATGTACACACACAAATAAATACATA [CACACA_site5107],7.23
19,AAAAAAAAGAAAAACACACACATATTTATTTATAAC [CACACA_site6600],6.93
20,TATATATTAAATTATAGTACACATTATATATAATTA [XGTACX_site4841],7.14
21,TATATATATATATATAGTACACATATCACATAAATG [XGTACX_site6379],9.54
22,ATAATATATGTATGTATGCACTTTTATTATTTTTTT,8.01
